This is one part of the list. Read counts after selection give these values, which scatter widely.

This test has as its system SARS-CoV-2 3CLpro (nsp5). Briefly: substrate phage enrichment score (protease-eluted vs HEPES control, +1 offset) (ratio); higher = better cleaved substrate. To be noted: selection round: 4; protease elution time: 15 min. The protocol: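 Random heptapeptide substrate phage display (M13 pIII fusion, heptapeptide between an N-terminal biotinylated AviTag GLNDIFEAQKIEWHE and pIII; phages immobilised on streptavidin) eluted by cleavage with 50 nM protease in 20 mM HEPES at 37 °C. Selected phages were NGS sequenced, and the enrichment score is (reads in protease sample + 1)/(reads in HEPES blank-selection control + 1).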
As to CLLDQKD, the “substrate phage enrichment score” value is 4.8.

In the case of QNSIKES, the “substrate phage enrichment score” value was > 26.

Regarding QTGPVNR, the “substrate phage enrichment score” value is > 26.

Regarding RTQPHAT, the “substrate phage enrichment score” value worked out at 0.714.

AIQSPAL: the “substrate phage enrichment score” value turned out to be 4.17.

Consider SADAHHH, for which the “substrate phage enrichment score” value was determined as 1.15.

On to SRESQCN, for which the “substrate phage enrichment score” value was 10.1.

As for TAKTGSP, the “substrate phage enrichment score” value was > 39.

Take HCLNSAR: the “substrate phage enrichment score” value was 0.111.

As to AEAHAPP, the “substrate phage enrichment score” value turned out to be 3.29.

In the case of KTTLKPG, the “substrate phage enrichment score” value is > 99.

Turning to LQPSNSR, the “substrate phage enrichment score” value is > 29.

Turning to LNSQLQG, the “substrate phage enrichment score” value turned out to be 6.67.

Take LYNPRGS: the “substrate phage enrichment score” value is 0.591.

With TTWCKCT, the “substrate phage enrichment score” value was > 53.

Regarding QSKRTLT, the “substrate phage enrichment score” value is > 23.

NSRSETQ: the “substrate phage enrichment score” value was determined as 5.75.

Turning to ICASENS, the “substrate phage enrichment score” value was > 24.

As to HLGNSAR, the “substrate phage enrichment score” value is 3.67.

For the substance RNMTEWS, the “substrate phage enrichment score” value stood at 2.06.

For HMSCSWF, the “substrate phage enrichment score” value was 1.78.

RFCESMS: the “substrate phage enrichment score” value came to 0.4.

Consider MRACNLQ, for which the “substrate phage enrichment score” value is > 32.

For the substance TYPQAQH, the “substrate phage enrichment score” value is 1.04.

As for SFQGGSA, the “substrate phage enrichment score” value was determined as 1.74.

As to RPAAHHH, the “substrate phage enrichment score” value worked out at 1.11.

In the case of LQANGQQ, the “substrate phage enrichment score” value is > 50.

Regarding SPNNSLC, the “substrate phage enrichment score” value stood at 5.89.

For the substance QSSPVMQ, the “substrate phage enrichment score” value is > 28.

As to PCMFESG, the “substrate phage enrichment score” value was 2.3.

Turning to RAAAPHH, the “substrate phage enrichment score” value worked out at 0.833.

As to WPQGESQ, the “substrate phage enrichment score” value was > 24.

As for RPHLQGS, the “substrate phage enrichment score” value was determined as 13.5.

With LSPVRLQ, the “substrate phage enrichment score” value was > 25.

Regarding GHTIREP, the “substrate phage enrichment score” value is 0.733.

Turning to NSLLQGT, the “substrate phage enrichment score” value is > 23.

For LCGILSW, the “substrate phage enrichment score” value amounted to 15.

In the case of DLWRGCN, the “substrate phage enrichment score” value was > 30.

As for SKGGCTL, the “substrate phage enrichment score” value stood at 0.551.

For CQKCITR, the “substrate phage enrichment score” value is 0.158.

Turning to GHGQTSA, the “substrate phage enrichment score” value was 5.43.

As for SVWSAPE, the “substrate phage enrichment score” value was > 78.

Turning to PNTDVNN, the “substrate phage enrichment score” value worked out at 2.09.

For TQMEQCC, the “substrate phage enrichment score” value is 0.182.

As for SAPLGNR, the “substrate phage enrichment score” value is > 41.

Turning to ASHKGMN, the “substrate phage enrichment score” value was determined as 4.6.

As to LHDPTAV, the “substrate phage enrichment score” value turned out to be 3.4.

In the case of TNFQGGS, the “substrate phage enrichment score” value came to 4.12.

With CVMKTGP, the “substrate phage enrichment score” value is 2.62.

In the case of IFRVVVR, the “substrate phage enrichment score” value stood at 1.26.

For ESHAERS, the “substrate phage enrichment score” value was found to be 0.365.

For the substance QAGPVNR, the “substrate phage enrichment score” value was > 28.

TSAAHHH: the “substrate phage enrichment score” value turned out to be 1.08.

As for AGAHHHH, the “substrate phage enrichment score” value is 0.533.

As to ALAVGAR, the “substrate phage enrichment score” value was 1.56.

Take QIQGWDK: the “substrate phage enrichment score” value worked out at 2.57.

With KRQYMLS, the “substrate phage enrichment score” value is > 29.

As for VASLPGQ, the “substrate phage enrichment score” value was > 54.

For the substance VQKQTVP, the “substrate phage enrichment score” value was determined as 5.75.

As for IHCKGNT, the “substrate phage enrichment score” value was > 21.

For the substance CATAHHH, the “substrate phage enrichment score” value stood at 5.71.

On to GSPMQSE, for which the “substrate phage enrichment score” value turned out to be 1.31.

Turning to NRSRSCP, the “substrate phage enrichment score” value was 0.136.

Consider PRTKGDC, for which the “substrate phage enrichment score” value was 6.33.

Consider SCAPTLR, for which the “substrate phage enrichment score” value is > 36.

For the substance CYVLQLE, the “substrate phage enrichment score” value is 0.76.

Turning to CQSLSVG, the “substrate phage enrichment score” value came out at 1.8.

As to CRQELKE, the “substrate phage enrichment score” value turned out to be 1.54.

TEAAHHH: the “substrate phage enrichment score” value worked out at 0.446.

Turning to LFVCRVG, the “substrate phage enrichment score” value is > 35.

For RAVGNNT, the “substrate phage enrichment score” value was > 22.

As for NYPRRDP, the “substrate phage enrichment score” value was > 24.

For KDTLCKM, the “substrate phage enrichment score” value amounted to 2.77.

Turning to GRECTLQ, the “substrate phage enrichment score” value was > 109.

As for VWMGPEE, the “substrate phage enrichment score” value was determined as 0.0952.

Take IWSEQFT: the “substrate phage enrichment score” value came out at 1.23.

Take TCRRHEE: the “substrate phage enrichment score” value came out at 0.467.

Take SQETTCQ: the “substrate phage enrichment score” value stood at 0.857.

With ELRQMPR, the “substrate phage enrichment score” value was > 26.

On to FGFSRLQ, for which the “substrate phage enrichment score” value was > 32.

For TDTAPAD, the “substrate phage enrichment score” value worked out at 0.087.

Consider TYDSPRQ, for which the “substrate phage enrichment score” value came out at 0.833.

Turning to SLCPMIG, the “substrate phage enrichment score” value stood at 10.5.

Take QFRGKNT: the “substrate phage enrichment score” value turned out to be 0.176.

With KDASAKQ, the “substrate phage enrichment score” value was > 27.

As to SAPPRTM, the “substrate phage enrichment score” value came to 2.56.

Turning to HSNLYMS, the “substrate phage enrichment score” value was > 34.

As for NYREAAC, the “substrate phage enrichment score” value is > 50.

Regarding NRPRCTL, the “substrate phage enrichment score” value worked out at 2.41.

As for PCETNSR, the “substrate phage enrichment score” value is > 57.

For the substance TVTPVEQ, the “substrate phage enrichment score” value came out at 0.278.

Consider VVSIPGK, for which the “substrate phage enrichment score” value was 5.14.

These data come from the supplement of paper PMC10185492.
